The results in this text go back to PubChem BioAssay AID1508623 (National Center for Advancing Translational Sciences (NCATS), 2021).

The whole screen tested about 48,000 compounds, of which about 450 (0.94%) were called active. Not shown: some 19% with an inconclusive outcome. The call rests on the fitted dose curve; in most records, active means well fitted inhibition curve with a large enough effect; inconclusive means small, poorly fitted or top-dose-only effect; inactive means no such curve, though single readings can be large or run the other way. The list shows a part of the results.

A short description of this assay: Primary qHTS for Identification of Small Molecule Inhibitors of Huntingtin Promoter Activity. Further: nearly all actives have a fitted effect of over 50% in size. As to conditions: HEK293 HTT promoter firefly luciferase reporter (activity 0% = vehicle and -100% = no light), 24 h; series mostly up to 57.5 µM; activity change, negative = inhibition: at the top concentration. In outline: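 HEK293 Fluc reporter, 2,500 cells/well, 24 h pre-culture; cpds up to 57.5 uM final, 24 h 37 degrees C; Dual-Glo, 10 min RT; normalized vehicle = 0%, zero RLU = -100%.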
On to `O=C(Nc1ccc(F)c(Cl)c1)C1CCCN(c2cnccn2)C1` (stereo not drawn), for which the “activity change, negative = inhibition” value is inactive: -11.1%. For the compound `COc1ccc(CC2C(=O)Nc3ccc(Br)cc32)cc1OC` (stereo not drawn), the “activity change, negative = inhibition” value is inactive: -12.9%. For `CCc1ccccc1NC(=O)N1CCN(C(=O)c2nsc3ccccc23)CC1`, the “activity change, negative = inhibition” value is inactive: -5.76%.

In the case of `CC(=O)N1CCCC1c1nc2ccccc2n1Cc1ccccc1C` (stereo not drawn), the “activity change, negative = inhibition” value is inactive: -11.6%.

As for `CC1CCN(S(=O)(=O)c2ccc3c(ccn3CCC(=O)NCc3ccc(N(C)C)cc3)c2)CC1`, the “activity change, negative = inhibition” value was inactive: -19.1%.

Consider `CCNc1nc(NC(C)(C)C)nc(Oc2ccc(=O)n(C)n2)n1`, for which the “activity change, negative = inhibition” value was inactive: 9.7%.

On to `O=C(NCCc1ccccc1)C(=O)NCC(c1ccc2c(c1)OCO2)N1CCOCC1` (stereo not drawn), for which the “activity change, negative = inhibition” value is inactive: -13.9%. Turning to `COc1cc(NC(=O)CC(C)n2nc(C)cc2C)cc(OC)c1` (stereo not drawn), the “activity change, negative = inhibition” value was inactive: -1.36%. On to `Cc1ccc(-c2nnc3ccccc3c2C(=O)Nc2ccccc2F)cc1`, for which the “activity change, negative = inhibition” value was inactive: 51.6%.

For the compound `CCOc1ccccc1C(=O)N(Cc1ccccc1F)C1CCS(=O)(=O)C1` (stereo not drawn), the “activity change, negative = inhibition” value is inactive: -6.18%. For `COc1cc(NC(=O)C(CCSC)NS(=O)(=O)c2ccc3c(c2)oc(=O)n3C)cc(OC)c1` (stereo not drawn), the “activity change, negative = inhibition” value was inactive: -29.9%. In the case of `Cc1ccc(-n2c(=O)c3c(c4cc(C)ccc4n3C)n(CC(=O)NCc3ccccc3)c2=O)cc1` it was inactive: -5.83%; in that of `CCN1CCc2nc3sc(C(=O)c4ccc(F)cc4)c(N)c3cc2C1`, inactive: -13.8%; in that of `COc1ccccc1NC(=O)CSc1nc(-c2ccccc2F)nc2cc(=O)[nH]n12`, inactive: -5.51%. For the compound `COc1ccc(NC(=O)c2c(NCc3cccc(OC)c3)sc3c2CCCC3)cc1`, the “activity change, negative = inhibition” value is inactive: -25.5%. For `Cc1ccc2occ(CC(=O)N(Cc3ccc(C(C)C)cc3)C3CCS(=O)(=O)C3)c2c1` (stereo not drawn), the “activity change, negative = inhibition” value is inactive: -26.4%. For `CC(C)(C)c1ccc(C(=O)N2CCC(c3nc4ccccc4o3)CC2)cc1`, the “activity change, negative = inhibition” value is inactive: -24%. As for `O=C(CCC1N=C2c3ccccc3N=C(SCc3ccccc3F)N2C1=O)NCc1ccc(F)cc1` (stereo not drawn), the “activity change, negative = inhibition” value is inactive: -11.4%.

For the compound `COc1ccc(-c2onc(C)c2C)cc1S(=O)(=O)NCC1CCN(Cc2cccc(F)c2)CC1`, the “activity change, negative = inhibition” value was inactive: -34.7%. On to `CC1=C(c2ccc(Cl)cc2)S(=O)(=O)N=C1N1CCC(C(=O)NCc2ccccc2F)CC1`, for which the “activity change, negative = inhibition” value was inactive: -21%. In the case of `COc1ccc(CCNc2nc3c(-c4cccc(C)c4)nnn3c3ccccc23)cc1OC` it was inactive: -23.9%; in that of `COc1ccc(CNC(=O)Cn2c(=O)cc(-c3ccccc3)c3c(C)nn(C)c32)cc1`, inactive: -28.7%.

Regarding `COc1ccc(S(=O)(=O)N(CC(=O)Nc2cccnc2)c2ccc(Cl)cc2)cc1`, the “activity change, negative = inhibition” value is inactive: -26.2%. With `CCOc1ccccc1CNC(=O)c1cccn1-c1nnc(N2CCCC2)s1`, the “activity change, negative = inhibition” value is inactive: -44.4%. For `CCc1ccc2oc(C(=O)Nc3ccccc3C(=O)OC)cc(=O)c2c1`, the activity change, negative = inhibition is inactive: -12.9% [at 11.5 µM]. For `CC(CCc1ccc(O)cc1)NCCc1ccc(O)c(O)c1` (stereo not drawn), the activity change, negative = inhibition entry was “inactive”. In the case of `CCCNS(=O)(=O)Nc1ncnc(OCCOc2ncc(Br)cn2)c1-c1ccc(Br)cc1`, the “activity change, negative = inhibition” value was inactive: 15.9%.

As for `Cc1ccccc1CSc1cn(CC(=O)N2CCCCCC2)c2ccccc12`, the “activity change, negative = inhibition” value was inactive: -5.75%. In the case of `Cc1cccn2c(=O)c(C(=O)NCCc3ccc(S(N)(=O)=O)cc3)c(O)nc12` it was inactive: -5.82%; in that of `O=C(CCOc1ccccc1)N(Cc1cccnc1)c1nc2c(F)cccc2s1`, inactive: 8.81%. In the case of `COc1ccc(CNC(=O)COCc2cc(-c3cccs3)on2)cc1` it was inactive: -9.55%. In the case of `O=C(O)Cn1ccc2cc(S(=O)(=O)N3CCCCCC3)ccc21` it was inactive: -2.48%; in that of `Cc1ccccc1CSc1nc2ccsc2c(=O)n1CCC(C)C`, inactive: 5.01%.

Regarding `CC1C(=O)N2CCCc3cc(S(=O)(=O)N4CCC(C(N)=O)CC4)cc1c32` (stereo not drawn), the “activity change, negative = inhibition” value was inactive: -19%. Take `COc1ccccc1NC(=O)c1oc2ccccc2c1NC(=O)C1CCCCC1`: the “activity change, negative = inhibition” value is inactive: -7.73%. On to `Cc1ccc2cc(CN(C(=O)c3cccc(Cl)c3)c3ccccc3)c(=O)[nH]c2c1`, for which the “activity change, negative = inhibition” value was inactive: -19.4%. Turning to `CCCSCCCNC(=O)c1ccc2c(c1)sc1nc(-c3ccc(OCC)cc3)cn12`, the “activity change, negative = inhibition” value was inactive: -9.4%. As to `COc1cccc(CNC(=O)c2cnc(N3CCCCC3)c3ccccc23)c1`, the “activity change, negative = inhibition” value was inactive: -15%. With `O=C(NCc1ccccc1F)C1CCN(c2nn3cc(-c4ccc(F)cc4)nc3s2)CC1`, the “activity change, negative = inhibition” value was inactive: 11.7%. On to `CN1c2ccc(Cl)cc2-c2nc(SCC(=O)NCc3ccccc3)ncc2S1(=O)=O`, for which the “activity change, negative = inhibition” value was inactive: -18.3%. In the case of `Cc1ccc(Cn2c(C(=O)O)c(CNC3CCCC3)c3ccc(C)cc32)cc1` it was inactive: -14.1%; in that of `Cc1cc(C)cc(-n2c(SCC(N)=O)nc3c([nH]c4ccccc43)c2=O)c1`, inactive: -24.1%; in that of `O=C(Nc1ccccc1C(F)(F)F)N1CCC(CN2CCc3ccccc3C2)CC1`, inactive: -16.1%. `O=C(NC1CC(=O)N(c2cccc(F)c2)C1)c1cc2ccccc2o1` (stereo not drawn): the “activity change, negative = inhibition” value is inactive: 11.2%. As to `COCCNc1oc(/C=C/c2ccc(F)cc2)nc1C#N`, the “activity change, negative = inhibition” value is inactive: 61.1%.

Consider `Cc1ccc2nc(-c3cccc(NC(=O)c4cccc5ccccc45)c3)oc2c1`, for which the “activity change, negative = inhibition” value is inactive: 26.8%. In the case of `CCC(=O)N1CCc2cc(Br)cc(S(=O)(=O)CCC(=O)NCc3cccc(OC)c3)c21` it was inactive: -14.6%; in that of `CCOc1ccc(-n2c(SCC(=O)NC3CCCCC3)nc3c([nH]c4ccccc43)c2=O)cc1`, inactive: -9.49%.
